The text below walks through data of the supplement of paper PMC11417369.

The list shows a part of the results.

In this experiment the test system is PfAP2-HC AP2 domain (GST-tagged). As to the kind of experiment: gcPBM binding intensity (ln(normalized median fluorescence intensity)); higher = stronger DNA binding. A digest of the protocol:
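GST-fused DNA-binding domains of P. falciparum, expressed in E. coli, were applied at about 25 μg on average for 1 h to an Agilent 4 × 180k array of primer-extended double-stranded 36-bp intergenic genomic probes and negative controls. Binding intensity is the highest Masliner-normalised natural-log median intensity across replicate spots of either probe orientation, measured with Alexa488 anti-GST antibody and a 488 nm scan.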
Regarding “ATGAATAAATAAGACACACACGAAAATAAGTAAAAA [CACACA_site4216]”, the “gcPBM binding intensity (ln)” value is 10.8. For “TATTTTGATTATTCAGTGTATAAATATATATATATA [CACACA_negctrl_site545]” the value was 9.52. Regarding “CCAATGTTTTCTTGTGTACACATCATTAAAGAAAAA [CACACA_site5300]”, the “gcPBM binding intensity (ln)” value came out at 9.52. The value for “ATTCTATATGAAAAATGTACAAATAAAAATTCTAAG [XGTACX_site8900]” was 9.59; that for “CATGAAAATATTATGTGTACTTAATGCACATTCAAA [XGTACX_site1952]” was 9.53; that for “TAAAGAGAGACATCAACACACATACGTATGTATAGA [CACACA_site4896]” was 9.87. For “AATATATTGTTTCCTGATATTAAATTCAATTTAATG [GTGCAC_negctrl_site22]” the value was 9.43. For “ATTTACCTATATATTTGTACTTACATAATGCTACCT [XGTACX_site2693]” the value was 9.74. “TAAAAAAAAATATATAAACACACATATTTATATACA [CACACA_site8469]”: the “gcPBM binding intensity (ln)” value amounted to 9.62.

For the sequence “TATATATATTTTGGCTGTACATCAGCGTATATTTTT [XGTACX_site3233]”, the “gcPBM binding intensity (ln)” value was found to be 9.7. For “AATAAATATATACATTGTACATATATAATATATATA [XGTACX_site1458]” the value was 9.7; for “TAAATTATAATATGCACACAAAATGTTATATTAAAA [CACACA_site376]”, 9.67; for “CCTATCCATGCATATACACACATATCTATTTATATA [CACACA_site6886]”, 10. The value for “AAAAAAAAACAAAAAAGTACAAAATAAAAATACGTT [XGTACX_site4566]” was 9.75. For “CTCTTCATATATAATTGTACACACAAAAACGACATT [XGTACX_site4287]” the value was 9.81; for “ATAAGAATCATATTTAAACACACATACATATATATA [CACACA_site9106]”, 10.1. Turning to “ATTAAATAAACCATTACACACTTTTATGTTTTGAAA [CACACA_site1143]”, the “gcPBM binding intensity (ln)” value is 9.61. For “TTTTTATTGGTGAATACACACGTATATATATATTAT [CACACA_site8756]” the value was 9.84; for “AAAAAAAAAAAATACACACACATAAAAAAAAAAATA [CACACA_site1858]”, 10.9; for “ATTATATTAACAATGACATGCAATTCTTAATCCTTA [TGCATGCA_site648]”, 9.56. The value for “AAAAAAAAATTGTGTACACATAATTATATCATATGT [CACACA_site4500]” was 9.77; that for “ATGGATAATAAGTTTACACACAAAAAAAAAGAAAAA [CACACA_site861]” was 9.87; that for “AAATAAAATAAATAATATAAAATAATATATAAAAAA [CACACA_negctrl_site1777]” was 9.82. The value for “TTTTGTTAAAAAGATGTATATTTTATAAATATTTAT [CACACA_negctrl_site101]” was 9.44.
